# According to the supplement of paper PMC10338343:
# ± gives the standard deviation. This is a selection; strong and weak results do not stand in their true shares.
# Tested on: MIWI (PIWIL1) piRISC loaded with piRNA #1 (30 nt)
# Assay: pre-steady-state target cleavage rate (min^-1); MIWI and MILI are mouse PIWI proteins and EfPiwi is from a freshwater sponge; tags in brackets are library labels; higher = faster piRNA-guided slicing of the target
# Settings: guide: piRNA #1 5'p-UGAGGUAGUAGGUUGUAUAGUAUCCAGAGG; auxiliary factor: 500 nM mouse GTSF1
# Method in brief: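 Reactions were run for 0–8 or 0–960 min at 33 °C in HEPES–potassium acetate buffer, combining 1 nM active affinity-purified piRISC with one synthetic guide, […] transcribed, DNA-blocked target RNA library and, in some cases, 500 nM GTSF1 partner protein. Sequencing of uncleaved targets followed, with normalisation to depth and to weakly complementary targets. Three trials were pooled, k3 was capped at 0.0001 min^-1, and the pre-steady-state cleavage rate was taken from a burst-and-steady-state fit.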
# 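Note: 1 nM active piRISC with 0.1 nM target library at 33 °C single turnover.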
row,Sequence,pre-steady-state target cleavage rate
1,GGAGACCUAACUAUACAACCUACUACCUA,0.622 ± 0.065
2,GCUCUGGAUACUUAUCAACCUACUACCUCA,0.893 ± 0.071
3,GGAGACCUAUGAUUACAACCUUGAUGGAGA [g10:g17:cont:t1A],< 0.0001
4,GGAGACGUUACUAUACAACCUACUACCACA,1.12 ± 0.088
5,GGAGACGAUACUUUACAACCUACAACCUCA,0.239 ± 0.028
6,CCUCUGGAUAGUAUACAACCUACUACCUCA,0.2 ± 0.039
7,GGAGACCUAUCUAUACAUCCUACAACCUCA,0.0883 ± 0.016
8,GGAGACCUAUGAUAUCAAACCUACUACCUCA,< 0.0001
9,GGAGAGUAUACUAUACAACCUACUACCUCA,1.86 ± 0.13
10,GGACUGGAAACUAUACAACGUACUACCUCA,0.622 ± 0.067
11,GGAGUGGAUACUAUACUACCAACUACCUCA,0.0269 ± 0.005
12,GGAGUGGAUAUUAUACAACCUACUACCUCA,1.48 ± 0.072
13,GGAGACCUAUCUAUACAACCUAGCUACCUCA,0.013 ± 0.0034
14,GGAGACCAUACUAUACAACUACUACCUCA,0.162 ± 0.016
15,GGAGAGGAUACUAAACAUCCUACUACCUCA,0.946 ± 0.044
16,GGAGACCUUUCUAUACAACCUUCUACCUCA,0.151 ± 0.017
17,GGAGACCAUACUAUACAACCUACUAACCUCA,1.26 ± 0.075
18,GGACUGGAUAGUAUACAACGUACUACCUCA,0.22 ± 0.042
19,GGAGACCUAUCUAUACAAGCUAGUACCUCA,0.193 ± 0.02
20,GGAGUGGAUACUAAACAACCUACUACGUCA,0.343 ± 0.033

row,Sequence,pre-steady-state target cleavage rate
1,GCUCUGGAUAGUAUACAACCUACUACGUCA,0.805 ± 0.064
2,GGUCUGGAUACAAUACAACCUACAACCUCA,0.583 ± 0.051
3,CCUCAGGAUACUAUACUACCUACUACCUCA,1.87 ± 0.12
4,CCACUGGAUACUAUACAACCUACUACGUCA,1.46 ± 0.088
5,GGAGACCUUACUAUACAACCUAGUACGUCA,0.2 ± 0.041
6,GGAGACGAUACAAUACAACCUACAACCUCA,0.769 ± 0.053
7,CCUCUGGAUUCUUUACAACCUACUACCUCA,0.729 ± 0.066
8,GGAGACCUUACUAUACAACCUACUACGCUCA,1.22 ± 0.074
9,GGAGACGAUACUAUACAACCUACUAGCCUCA,0.845 ± 0.081
10,GGAGACGAUACUAUACAACCUUCUAGCUCA,0.129 ± 0.026
11,GGACUGGAUACUAUACAACCAUGAUGGAGA [g11:g27:cont:t1A],< 0.0001
12,CCUCUGGAUACUAUUGAACCUACUACCUCA,1.23 ± 0.087
13,GGAGACCUAUGUAUACAACCUACUACCUCC [g2:g19:cont:t1C],0.0424 ± 0.0064
14,GCUCUGGAUACAAAACAACCUACUACCUCA,1.08 ± 0.088
15,GGUCUGGAUACAAUACAACCUACUACCUCA,1.89 ± 0.11
16,CCUCUGGAAACAAUACAACCUACUACCUCA,1.75 ± 0.11
17,GCUCUGGAAUCUAUACAACCUACUACCUCA,1.58 ± 0.099
18,GGAGUGGUAACUAUACAACCUACUACCUCA,1.2 ± 0.073
19,GGAGACGAUGCUAUACAACCUACUACCUCA,1.98 ± 0.14
20,GGACUGGAAACUAUACUACCUACUACCUCA,0.573 ± 0.083
